Molecules are shown by their SMILES. About 1,200 (2.5%) of roughly 48,000 compounds were called active. Not shown: some 2% with an inconclusive outcome.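 The calls were made as follows: active = activation of at least 60% and not above a set upper limit (about 1 call in 100 departs from these limits); inconclusive = activation of 40% to 60%, or above that upper limit; inactive = activation under 40%.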 The list shows a part of the results.

The assay addresses Probable G-protein coupled receptor 32 (Homo sapiens) (UniProt O75388). As to the kind of experiment: qHTS for Agonists of Human Resolvin D1 Receptor DRV1. Also: 0% is about no effect. Particulars: CHO-K1 GPR32 beta-arrestin PathHunter luminescence, 90 min; at 76.9 µM; stronger effect = higher value; zero percent set by DMSO-only wells. An outline of the steps: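 CHO-K1 cells stably expressing ProLink-tagged GPR32 and Enzyme Activator-tagged beta-arrestin were seeded at 2,500 cells/well overnight, exposed to compounds for 90 min at 37 °C, then read by beta-Gal complementation chemiluminescence after 1 h detection reagent.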
Sequence of UniProt O75388 (O75388 whole entry, looked up): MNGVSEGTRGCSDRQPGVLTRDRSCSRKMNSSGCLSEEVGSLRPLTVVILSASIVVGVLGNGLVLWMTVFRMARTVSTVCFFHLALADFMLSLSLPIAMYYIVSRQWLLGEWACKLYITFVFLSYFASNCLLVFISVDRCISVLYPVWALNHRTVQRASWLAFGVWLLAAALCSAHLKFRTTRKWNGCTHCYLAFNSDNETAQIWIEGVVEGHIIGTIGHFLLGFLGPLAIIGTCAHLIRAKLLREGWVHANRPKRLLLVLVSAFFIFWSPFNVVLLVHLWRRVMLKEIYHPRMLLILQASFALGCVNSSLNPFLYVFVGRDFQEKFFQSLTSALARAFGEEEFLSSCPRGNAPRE
Background: qHTS replaces the single test concentration by a dilution series.
On to `COc1ccc(S(=O)(=O)c2cn(Cc3ccccc3)c3cc(N4CCCC4)c(F)cc3c2=O)cc1`, for which the activation is inactive: -21.2%.

For the compound `CCCOc1cccc(C(=O)Nc2ccc(-c3nc4ccccc4s3)c(Cl)c2)c1`, the activation was inactive: -16.8%.

For the compound `COc1ccc(CCNC(=O)CCCCn2c(=O)c3ccccc3n(CC(=O)Nc3ccccc3C)c2=O)cc1OC`, the activation was inactive: -26.4%.

On to `COc1ccc(CCNC(=O)CCn2c(=O)c3ccccc3n(Cc3ccc(Cl)cc3)c2=O)cc1OC`, for which the activation was inactive: -5.5%.

With `CCc1ccccc1NC(=O)Cn1c(=O)nc(-c2ccccc2)c2ccccc21`, the activation is inactive: -4.04%.

For `CCOC(=O)c1c(C)[nH]c(C)c1S(=O)(=O)N1CCC(C(=O)NCc2ccc(C)cc2)CC1`, the activation is inactive: 17.4%.

Consider `C=C(C)CSc1nc2sc3c(c2c(=O)n1CCCC)CCCC3`, for which the activation was inactive: 29.8%.

Turning to `CCn1c2c(c(=O)n3ncc(C(=O)Nc4cccc(Cl)c4C)c13)CN(Cc1ccc(OC)cc1)CC2`, the activation is inactive: -17.5%.

As for `COc1ccc(CNC(=O)C2CCN(c3nc4ccc(C)cc4[nH]3)CC2)cc1`, the activation was inactive: -5.56%.

For `Cc1cc(C)cc(NC(=O)CSc2nncn3c2cc2occc23)c1`, the activation was inactive: -19.1%.

As for `O=C(Nc1ccc(N2CCN(CCOc3ccc(Cl)cc3)CC2)c(C(=O)O)c1)c1ccc(F)cc1`, the activation is inactive: -5.47%.

As to `CCCn1c(SCC(O)c2cccc(OC)c2)nc2ccccc21` (configuration not stated), the activation was inactive: -15.8%.

`Cc1ccc(C)c(CN2CCCN(Cc3cc(C)ccc3C)S2(=O)=O)c1`: the activation is inactive: -12.3%.

As for `COc1ccccc1C(=O)NC1(C(F)(F)F)C(=O)Nc2c1c(=O)[nH]c(=O)n2CCc1ccccc1` (configuration not stated), the activation was inactive: 21.2%.

Turning to `COc1ccc(CNC(=O)c2nnn(CC(=O)Nc3cc(C)cc(C)c3)c2N)cc1`, the activation was inactive: -0.68%.

As for `CCc1nc2ccccc2n1CCCCOc1ccccc1C`, the activation was inactive: 18.4%.

Regarding `Cc1cnc(NS(=O)(=O)c2ccc(N)cc2)nc1`, the activation is inactive: -5.34%.

On to `COC(=O)c1ccc(-n2c(/C=C\c3cccc(Br)c3)nc3ccccc3c2=O)cc1`, for which the activation was inactive: -11.9%.

Turning to `Cc1ccc(S(=O)(=O)C(CNC(=O)C(=O)NCCc2ccccc2)c2ccco2)cc1` (configuration not stated), the activation was inactive: -10.5%.

For `Cc1ccccc1CCNC(=O)C1CCN(c2nc3ccccc3nc2C(F)(F)F)CC1`, the activation was inactive: 1.25%.

Regarding `COc1cc(CN(C(=O)c2cccc(C)c2)c2ccccn2)cc(OC)c1OC`, the activation is inactive: -0.6%.

Regarding `Cc1ccc(-n2c(SCC(=O)NCc3ccccc3)nc3c([nH]c4ccccc43)c2=O)cc1`, the activation was inactive: -16%.

As to `CCOc1ccc(C(=O)NCCn2cc(SCC(=O)Nc3ccccc3)c3ccccc32)cc1`, the activation was inactive: 12.7%.

On to `COC(=O)c1cc(NC(=O)c2sc3ncn(Cc4cccc(F)c4)c(=O)c3c2C)cc(C(=O)OC)c1`, for which the activation is inactive: 6.12%.

Regarding `COc1ccccc1NC(=O)CCS(=O)(=O)c1cc2c3c(c1)CCN3C(=O)CC2`, the activation was inactive: -13.2%.

For the compound `CCC1CCCCN1C(=O)c1nn(-c2ccc(OC)cc2)c(=O)c2c1c1ccccc1n2C` (configuration not stated), the activation was inactive: 4.21%.

Consider `O=C(NCc1ccccc1Cl)c1cc(=O)[nH]c2ccc(S(=O)(=O)N3CCCCC3)cc12`, for which the activation was inactive: 10.8%.

On to `COc1ccccc1CNC(=O)Cn1c(=O)oc2cc(S(=O)(=O)NCc3ccccc3)ccc21`, for which the activation is inactive: -0.597%.

On to `CC1=C(C(=O)Nc2ccc(Cl)cc2)C(C(C)C)n2nc(SCc3ccc(Cl)cc3)nc2N1` (configuration not stated), for which the activation is inactive: -3.27%.

`Cc1ccc(C)c(N2CCN(C(=O)CCn3c(=O)c4cccn4c4cccnc43)CC2)c1`: the activation was inactive: -14.2%.

In the case of `COc1ccccc1Nc1nc(-c2ccccc2Cl)c2cc(Br)ccc2n1`, the activation is inactive: -25.9%.

For `CCN(Cc1ccccc1)C(=O)CN1C(=O)COc2ccc(S(=O)(=O)N(CC)CC)cc21`, the activation is inactive: -17.7%.

Consider `O=C(NCC1CCN(Cc2cccc(Cl)c2)CC1)c1cc2ccc3cccnc3c2[nH]1`, for which the activation is inactive: -2.1%.

With `O=C(Cn1nc(C(F)(F)F)c2c1CCC2)Nc1ccc(Cl)cc1`, the activation was inactive: 39.4%.

On to `COc1ccc(OC)c(CCNC(=O)C2=C(C)C(=O)OC23CCC(C)CC3)c1` (configuration not stated), for which the activation was inactive: -27.3%.

In the case of `Cc1cc(C)c2c(CC(=O)Nc3ccc(S(=O)(=O)Nc4ncccn4)cc3)coc2c1`, the activation is inactive: 14.9%.

Consider `O=C(Nc1cnc(N2CCC(N3CCCCC3)CC2)c(C(=O)O)c1)c1ccc(Br)cc1`, for which the activation was inactive: 14.5%.

Regarding `CCn1nc(C)c(CCN(C)C(=O)Nc2cc(C)cc(C)c2)c1C`, the activation was inactive: 6.37%.

Take `CCc1ccc(CNC(=O)Cn2c(-c3cccs3)cc3cc(F)ccc32)cc1`: the activation was inactive: -2.7%.

As for `COc1ccccc1NC(=O)c1c(NC(=O)Cc2ccccc2)sc2c1CCC(C(C)(C)C)C2` (configuration not stated), the activation was inactive: -4.17%.

With `COc1ccc(-n2c(=O)c3c(c4cc(OC)ccc4n3C)n(Cc3ccc(F)cc3Cl)c2=O)cc1`, the activation was inactive: 7.05%.

For `COc1ccc(-c2cc(C(C)=O)c(C)n2CCC(=O)Nc2ccc(C(F)(F)F)cc2)cc1`, the activation is inactive: 4.56%.

Turning to `Cc1cc(C)nc(-n2nc(C)c3c2NC(=O)CC3c2cc(F)ccc2F)n1` (configuration not stated), the activation is inactive: -1.43%.

With `COc1ccccc1NC(=O)Cn1c(=O)n(Cc2ccccc2)c(=O)c2c3c(sc21)CN(C(C)=O)CC3`, the activation was inactive: -10.1%.

As for `Cn1c(=O)cc(SCC(=O)N2CCN(c3ccccc3F)CC2)c2cc(Cl)ccc21`, the activation was inactive: -4.15%.

For the compound `CC(C)Sc1ncc(Cl)c(C(=O)Nc2ccc(S(=O)(=O)Nc3ncccn3)cc2)n1`, the activation is inactive: -6.05%.

`Cc1ccc(NC(=O)c2cc3c([nH]c2=O)CC(C)(C)CC3=O)c(C)c1`: the activation was inactive: 5.66%.

For the compound `COc1ccc(CNC(=O)CSc2n[nH]c(-c3ccc(OC)cc3)n2)cc1`, the activation is inactive: 10%.

As for `Cc1cc(Cl)ccc1OCC(=O)Nc1c(C(=O)c2ccccc2)oc2ccccc12`, the activation was inactive: -11.4%.

Turning to `O=C(CSc1ncc(-c2ccccc2)[nH]1)Nc1cccc(C(F)(F)F)c1`, the activation is inactive: -11.8%.

For `COc1cc(Cn2c(=O)sc3ccccc32)ccc1OCCC(C)C`, the activation was inactive: -28.6%.

In the case of `CC(C)c1ccc2c(c1)-c1ccccc1S(=O)(=O)N2CC(=O)N1CCCCC1`, the activation was inactive: -21.7%.

These data come from PubChem BioAssay AID1346428 (National Center for Advancing Translational Sciences (NCATS), 2018).
